Results as given in PubChem BioAssay AID624171 (National Center for Advancing Translational Sciences (NCATS), 2012).
In all, about 410,000 compounds went through this assay and about 1,200 (0.29%) were called active. This list was built around the results that the source calls inconclusive (neither active nor inactive); the mix of calls is not that of the screen. Calls come from the whole dose curve; as a rule, active = well fitted activation curve with a large enough effect; inconclusive = small, poorly fitted or top-dose-only effect; inactive = flat fitted curve, though single readings scatter. Potencies beside an inconclusive call are fits to weak or partial responses and may not hold up.

Test: qHTS of Nrf2 Activators; note: nearly all actives have a fitted effect of over 65% in size
Details: AREc32 ARE-luciferase reporter (MCF7-derived line), luminescence, 24 h; series mostly up to 46.1 µM
Outline: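 Steps: seed AREc32_Fluc cells (1000/well, 5% FBS OPTI-MEM); incubate overnight at 37 deg C; add 23 nL compound; incubate 24 hr; add Steady-Glo; hold 30 min RT; read luminescence.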
Potency is the fitted concentration of half-maximal effect; tags give direction and shape of the fitted curve.

Potency, inactive:
Cc1ccc(-c2cc3nn(-c4ccccc4)c(N)c3c(=O)o2)cc1, Cc1cccc(NC(=O)CN2CCc3cc4c(cc3C2)OCCCO4)c1, Cc1ccnn1CC(=O)N/N=C/c1ccc([N+](=O)[O-])s1, O=C(O)CCC(=O)N1N=C(c2cccs2)CC1c1cn(-c2ccccc2)nc1-c1ccccc1 (stereo not given), Nc1nc(CN2CCN(c3ccccc3)CC2)nc(N2CCCc3ccccc32)n1, Cc1nnc(SCc2ccccc2)nc1-c1ccccc1, CCC(CO)Oc1cc(NC(=O)c2ccc([N+](=O)[O-])cc2)c2ncn(C(C)C)c2c1 (stereo not given), Cc1ccc2c(c1)[C@H]1[C@H](CO2)[C@H](c2ccccc2)[C@]2(C)C(=O)Nc3cc(F)ccc3C(=O)N12, O=C(Nc1ccc(Cl)cc1)C1CCN(C(=O)NC2CCCCC2)CC1, CCOc1cc2[nH]c(=O)n(CCCCCC(=O)NC3CCCC3)c(=O)c2cc1OCC, COc1cc(OC)c(OC)cc1CNC(=O)c1cccc(S(=O)(=O)N2CCc3ccccc3C2)c1, COc1ccc(OC)c(C2CC(=O)Nc3c2c(=O)n(C)c2ncnn32)c1 (stereo not given), COc1ccccc1C(=O)N1CC(=O)Nc2ccc(F)cc2C1c1ccccc1 (stereo not given), N#Cc1ccc(C#Cc2ccc3oc4ccccc4c(=O)c3c2)cc1, CCCCC(=O)N/N=C/c1ccc(Sc2cccc3cccnc23)o1, COc1cccc(CN(C)C(=O)c2cccc(S(=O)(=O)Nc3cccc(C)c3)c2)c1OC, Cc1ccccc1CNC(=O)CN1CCSc2ccccc21

Potency, active:
C#CCSc1nnc(-c2sc3ccccc3c2Cl)o1 4.47 µM, Cc1nnc2c(Nc3cccc(O)c3)nc3ccccc3n12 3.16 µM, CCN(C(=O)COC(=O)/C=C/c1nc2ccccc2s1)c1c(N)n(Cc2ccccc2)c(=O)[nH]c1=O 12.6 µM, CNc1ccc(Br)cc(C(=O)/C=C/c2cccc(Cl)c2Cl)c1=O 7.94 µM

Potency, inconclusive:
O=CNc1cc2c(cc1Br)-c1ccccc1C2O (stereo not given) 1.41 µM [activator, full curve, poor fit], COC(=O)c1ccccc1CCC(C)=O 28.2 µM [activator, single point], C#CC(=O)N(c1ccc(OC)c(OC)c1)C(C(=O)NC1CCCC1)c1cccs1 (stereo not given) 22.4 µM [activator, single point], Cn1cc(C2OC(=O)c3ccccc32)c2ccccc21 (stereo not given) 22.4 µM [activator, single point], COC(=O)c1cc(=O)n(C2CC2)c(=NC2CC2)s1 31.6 µM [activator, partial curve, poor fit], CC(=O)n1c(C=Nc2ccccc2)c(O)c2ccccc21 3.16 µM [activator, partial curve, poor fit], O=C(N/N=C\C=C\c1ccc([N+](=O)[O-])o1)c1cccs1 3.55 µM [activator, single point], CN(C(=O)COC(=O)c1cnc(Cl)c(Cl)c1)C1CCCCC1 31.6 µM [activator, single point], CC(Oc1ccccc1)C(=O)Nc1ccccc1O (stereo not given) 17.8 µM [activator, single point], COc1ccc(Cl)cc1NC(=O)CCC(=O)N1CCOc2ccccc21 4.47 µM [activator, full curve], COc1ccc(-n2cnc(=S)[nH]c2=S)cc1 17.8 µM [activator, single point], CC1CCCC(NC(=O)COC(=O)/C=C/c2ccco2)C1C (stereo not given) 15.8 µM [activator, single point], Oc1ccc(/C=N/Nc2ccc(Cl)nn2)cc1O 20 µM [activator, single point], O=C1/C(=C/c2ccco2)SC(=S)N1c1cccnc1 11.2 µM [activator, partial curve, poor fit], O=C(c1ccco1)N1CCc2ccccc21 17.8 µM [activator, single point], CCOC(=O)/C=C/C(=O)Nc1cc(S(=O)(=O)Nc2ccc(OC)cc2)ccc1N1CCOCC1 12.6 µM [activator, single point], COc1ccccc1/C=C/C=N/NC(=O)c1ccco1 8.91 µM [activator, partial curve], COc1cccc(NC(=O)CCc2nnc3ccc(NCc4ccco4)nn23)c1 28.2 µM [activator, single point], NC(=O)c1ccc(NC(=O)C#Cc2ccccc2)cc1 3.16 µM [activator, partial curve, poor fit], Cc1cc(C(=O)CCl)c(C)n1Cc1ccco1 35.5 µM [activator, single point], CCOC(=O)/C(=C/c1ccc(OC(F)F)cc1)C1=Nn2c(nnc2-c2ccc(Cl)cc2)SC1 11.2 µM [activator, partial curve, poor fit], CCc1cccc(CC)c1N1C(=O)C2=C(SCCCS2)C1=O 28.2 µM [activator, single point], O=S(=O)(CC(CN1CCCCC1)N1CCCCC1)c1ccc2ccccc2c1 (stereo not given) 3.55 µM [activator, single point], CSc1ncccc1C(=O)OCc1nc2ccsc2c(=O)[nH]1 17.8 µM [activator, single point], CN1C(=O)CC(Nc2cccc3cccc(N)c23)C1=O (stereo not given) 17.8 µM [activator, partial curve, poor fit], Cc1nc2c(=O)n(C)c(=O)n(C)c2nc1Cl 3.16 µM [activator, single point], COc1nc(-c2ccccc2)ccc1-c1noc(-c2ccccc2)n1 1.41 µM [activator, full curve, poor fit], O=C(COCc1cc(-c2ccco2)on1)Nc1cc(Cl)ccc1O 3.55 µM [activator, partial curve, poor fit], O=C(Nc1cccc(C(F)(F)F)c1)c1ccco1 17.8 µM [activator, single point], COc1ccc(NC(=O)CSc2nnc(C)c3ccccc23)cc1 35.5 µM [activator, single point], Cc1ccccc1C(=O)Oc1cc(N)n(S(C)(=O)=O)n1 28.2 µM [activator, single point], N#Cc1nc(-c2ccco2)oc1N1CCCC1 7.08 µM [activator, partial curve, poor fit], O=C(CNC(=O)c1cccs1)N=Nc1c(O)[nH]c2ccc([N+](=O)[O-])cc12 12.6 µM [activator, single point], CC(C)(C)c1cc(OC(=O)c2ccncc2)ccc1O 35.5 µM [activator, partial curve, poor fit], Cc1onc(C(=O)Nc2cccnc2Cl)c1[N+](=O)[O-] 35.5 µM [activator, partial curve, poor fit], O=C(/C=C/c1ccco1)NCc1ccco1 17.8 µM [activator, single point], Cc1ccnc(NC(c2cccc(O)c2)c2ccc3ccc(C)nc3c2O)c1 (stereo not given) 31.6 µM [activator, single point], N/C(=N\OC(=O)c1ccc(Cl)cc1Cl)c1ccc(Cl)cc1 22.4 µM [activator, single point], CCSc1ncc(Cl)c(C(=O)Nc2ccccc2F)n1 20 µM [activator, single point], O=C(CCC(=O)Nc1cccc([N+](=O)[O-])c1)N/N=C/c1cccs1 12.6 µM [activator, single point], COc1cc2c(cc1OC)CN(CCC(=O)c1ccc(Br)cc1)CC2 20 µM [activator, single point], N#CC(C(=O)NCc1ccco1)c1nc2ccccc2nc1N1CCOCC1 (stereo not given) 3.98 µM [activator, partial curve, poor fit], CC1CCN(C(=O)c2ccc(S(=O)(=O)Cc3cc(F)ccc3F)c([N+](=O)[O-])c2)CC1 12.6 µM [activator, partial curve, poor fit], CN1CCN(C(=O)CCN2C(=O)/C(=C/c3ccccc3Cl)SC2=S)CC1 15.8 µM [activator, single point], Cc1cc(Br)cn2c(Cc3cccc(Cl)c3)c(-c3ccco3)nc12 31.6 µM [activator, single point], COC(=O)C1=C(C)OC(N)=C(C#N)C1c1ccc(OC)c(CSc2ccccn2)c1 (stereo not given) 15.8 µM [activator, single point], COC(=O)c1sccc1NC(=O)c1ccccc1F 3.98 µM [activator, full curve, poor fit], N#CCSc1nnc(-c2c[nH]c3ccccc23)o1 12.6 µM [activator, partial curve], O=C(O)c1cccc(CN2C(=O)S/C(=C/c3ccccc3[N+](=O)[O-])C2=O)c1 25.1 µM [activator, single point]
